By IC50 is meant the dose at which the fit gives 50% viability; a fit beyond the top or the lowest dose is shown as a bound at that dose. AUC, from the same fit, is the share of area under the viability curve across the 256-fold dose range; values near 1 show little effect.
compound: FC(F)c1nc2ccccc2n1-c1nc(N2CCOCC2)nc(N2CCOCC2)n1 [ZSTK474]; assay: Viability of human cancer cell lines after 72 h of drug (GDSC screen)
Description: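 Human cancer cell lines in 384-well plates, medium with 10% serum, drug for 72 h over a 256-fold dose range (nine 2-fold or five 4-fold steps up to the top dose). Adherent lines were fixed and stained with the nucleic acid dye Syto60, suspension lines read with resazurin; signal relative to control wells, capped at 0 and 100%. One two-parameter sigmoid per drug and line, fitted in a mixed model over all curves with the slope shared within a line.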

**Q.** Which results are given for “NCI-H2023 (lung adenocarcinoma, adherent, top dose 5.12 µM)”?
**A.** AUC: 0.869; IC50: > 5.12 µM

**Q.** “NCI-H2029 (small cell lung carcinoma, adherent, top dose 5.12 µM)” was tested. Which AUC did it give?
**A.** 0.913

**Q.** And the IC50?
**A.** > 5.12 µM

**Q.** Which AUC does the source give for “NCI-H2030 (lung adenocarcinoma, adherent, top dose 5.12 µM)” here?
**A.** 0.803

**Q.** What about the IC50 of the same cell line?
**A.** 2.97 µM

**Q.** What does the source list for “NCI-H2052 (mesothelioma, adherent, top dose 5.12 µM)”?
**A.** AUC: 0.952; IC50: > 5.12 µM

**Q.** Which AUC does the source give for “NCI-H2081 (small cell lung carcinoma, suspension, top dose 5.12 µM)” here?
**A.** 0.771

**Q.** What about the IC50 of the same cell line?
**A.** 2.07 µM

**Q.** Which results are given for “NCI-H2085 (lung adenocarcinoma, adherent, top dose 5.12 µM)”?
**A.** AUC: 0.474; IC50: 0.269 µM

**Q.** What does the source list for “NCI-H2087 (lung adenocarcinoma, semi-adherent, top dose 5.12 µM)”?
**A.** AUC: 0.751; IC50: 1.8 µM

**Q.** For “NCI-H2110 (non-small cell lung carcinoma, adherent, top dose 5.12 µM)”, which AUC is on record?
**A.** 0.887

**Q.** What about the IC50 of the same cell line?
**A.** > 5.12 µM

**Q.** Which results are given for “NCI-H2122 (lung adenocarcinoma, adherent, top dose 5.12 µM)”?
**A.** AUC: 0.923; IC50: > 5.12 µM

**Q.** With “NCI-H2135 (non-small cell lung carcinoma, adherent, top dose 5.12 µM)” as the cell line, how does the AUC read?
**A.** 0.76

**Q.** And the IC50?
**A.** 1.75 µM

**Q.** With “NCI-H2141 (small cell lung carcinoma, suspension, top dose 5.12 µM)” as the cell line, how does the AUC read?
**A.** 0.798

**Q.** What about the IC50 of the same cell line?
**A.** 2.36 µM

**Q.** Which results are given for “NCI-H2170 (lung squamous cell carcinoma, adherent, top dose 5.12 µM)”?
**A.** AUC: 0.935; IC50: > 5.12 µM

**Q.** What does the source list for “NCI-H2171 (small cell lung carcinoma, suspension, top dose 5.12 µM)”?
**A.** AUC: 0.866; IC50: 3.58 µM

**Q.** With “NCI-H2172 (non-small cell lung carcinoma, adherent, top dose 5.12 µM)” as the cell line, how does the AUC read?
**A.** 0.869

**Q.** And the IC50?
**A.** > 5.12 µM

**Q.** What does the source list for “NCI-H2196 (small cell lung carcinoma, adherent, top dose 5.12 µM)”?
**A.** AUC: 0.798; IC50: 2.58 µM

**Q.** “NCI-H2227 (small cell lung carcinoma, semi-adherent, top dose 5.12 µM)” was tested. Which AUC did it give?
**A.** 0.761

**Q.** What about the IC50 of the same cell line?
**A.** 2.04 µM

**Q.** Which AUC does the source give for “NCI-H2228 (lung adenocarcinoma, adherent, top dose 5.12 µM)” here?
**A.** 0.717

**Q.** What about the IC50 of the same cell line?
**A.** 1.84 µM

**Q.** For “NCI-H2291 (lung adenocarcinoma, adherent, top dose 5.12 µM)”, which AUC is on record?
**A.** 0.978

**Q.** What about the IC50 of the same cell line?
**A.** > 5.12 µM

**Q.** “NCI-H2342 (lung adenocarcinoma, adherent, top dose 5.12 µM)” was tested. Which AUC did it give?
**A.** 0.885

**Q.** And the IC50?
**A.** > 5.12 µM

**Q.** For “NCI-H2347 (lung adenocarcinoma, adherent, top dose 5.12 µM)”, which AUC is on record?
**A.** 0.795

**Q.** And the IC50?
**A.** 2.97 µM

**Q.** Which AUC does the source give for “NCI-H2405 (lung adenocarcinoma, adherent, top dose 5.12 µM)” here?
**A.** 0.772

**Q.** What about the IC50 of the same cell line?
**A.** 2.2 µM

**Q.** With “NCI-H2444 (non-small cell lung carcinoma, adherent, top dose 5.12 µM)” as the cell line, how does the AUC read?
**A.** 0.963

**Q.** What about the IC50 of the same cell line?
**A.** > 5.12 µM

**Q.** Which AUC does the source give for “NCI-H2452 (mesothelioma, adherent, top dose 5.12 µM)” here?
**A.** 0.984

**Q.** And the IC50?
**A.** > 5.12 µM

**Q.** How did the AUC turn out when “NCI-H3122 (lung adenocarcinoma, adherent, top dose 5.12 µM)” was run?
**A.** 0.752

**Q.** And the IC50?
**A.** 1.75 µM

**Q.** For “NCI-SNU-1 (stomach, suspension, top dose 5.12 µM)”, which AUC is on record?
**A.** 0.73

**Q.** And the IC50?
**A.** 1.49 µM

**Q.** How did the AUC turn out when “NCI-SNU-5 (stomach, suspension, top dose 5.12 µM)” was run?
**A.** 0.892

**Q.** And the IC50?
**A.** > 5.12 µM

**Q.** What does the source list for “NCI-SNU-16 (stomach, suspension, top dose 5.12 µM)”?
**A.** AUC: 0.99; IC50: > 5.12 µM

**Q.** Which AUC does the source give for “NEC8 (testis, adherent, top dose 5.12 µM)” here?
**A.** 0.966

**Q.** What about the IC50 of the same cell line?
**A.** > 5.12 µM

**Q.** With “NH-12 (neuroblastoma, adherent, top dose 5.12 µM)” as the cell line, how does the AUC read?
**A.** 0.74

**Q.** What about the IC50 of the same cell line?
**A.** 1.72 µM

**Q.** “NK-92MI (lymphoid neoplasm, suspension, top dose 5.12 µM)” was tested. Which AUC did it give?
**A.** 0.216

**Q.** And the IC50?
**A.** 0.0508 µM

**Q.** For “NKM-1 (acute myeloid leukaemia, suspension, top dose 5.12 µM)”, which AUC is on record?
**A.** 0.289

**Q.** And the IC50?
**A.** 0.0795 µM

**Q.** Which results are given for “NMC-G1 (glioma, adherent, top dose 5.12 µM)”?
**A.** AUC: 0.743; IC50: 1.9 µM

**Q.** “NOMO-1 (acute myeloid leukaemia, suspension, top dose 5.12 µM)” was tested. Which AUC did it give?
**A.** 0.638

**Q.** What about the IC50 of the same cell line?
**A.** 0.816 µM

**Q.** “NOS-1 (osteosarcoma, adherent, top dose 5.12 µM)” was tested. Which AUC did it give?
**A.** 0.389

**Q.** And the IC50?
**A.** 0.148 µM

**Q.** Which results are given for “NTERA-2 cl.D1 (testis, adherent, top dose 5.12 µM)”?
**A.** AUC: 0.73; IC50: 1.44 µM

**Q.** What does the source list for “NU-DUL-1 (B-cell lymphoma, suspension, top dose 5.12 µM)”?
**A.** AUC: 0.056; IC50: < 0.02 µM
